Measured values as given in article PMC4336329 (PLoS ONE, 2015).
The whole screen tested about 310,000 compounds, of which about 14,000 (4.5%) showed an effect of 50% or more. The effect is printed as a negative number. Some of the results follow.

What follows are compounds tested against human ether-à-go-go-related gene (hERG) potassium channel (human, UniProt Q12809) (assay: primary screen, population patch clamp on CHO cells stably expressing hERG).
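Further: peak tail current of the secondary pulse compared with the same well before compound.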

Sequence of human ether-à-go-go-related gene (hERG) potassium channel (Q12809 whole entry, looked up): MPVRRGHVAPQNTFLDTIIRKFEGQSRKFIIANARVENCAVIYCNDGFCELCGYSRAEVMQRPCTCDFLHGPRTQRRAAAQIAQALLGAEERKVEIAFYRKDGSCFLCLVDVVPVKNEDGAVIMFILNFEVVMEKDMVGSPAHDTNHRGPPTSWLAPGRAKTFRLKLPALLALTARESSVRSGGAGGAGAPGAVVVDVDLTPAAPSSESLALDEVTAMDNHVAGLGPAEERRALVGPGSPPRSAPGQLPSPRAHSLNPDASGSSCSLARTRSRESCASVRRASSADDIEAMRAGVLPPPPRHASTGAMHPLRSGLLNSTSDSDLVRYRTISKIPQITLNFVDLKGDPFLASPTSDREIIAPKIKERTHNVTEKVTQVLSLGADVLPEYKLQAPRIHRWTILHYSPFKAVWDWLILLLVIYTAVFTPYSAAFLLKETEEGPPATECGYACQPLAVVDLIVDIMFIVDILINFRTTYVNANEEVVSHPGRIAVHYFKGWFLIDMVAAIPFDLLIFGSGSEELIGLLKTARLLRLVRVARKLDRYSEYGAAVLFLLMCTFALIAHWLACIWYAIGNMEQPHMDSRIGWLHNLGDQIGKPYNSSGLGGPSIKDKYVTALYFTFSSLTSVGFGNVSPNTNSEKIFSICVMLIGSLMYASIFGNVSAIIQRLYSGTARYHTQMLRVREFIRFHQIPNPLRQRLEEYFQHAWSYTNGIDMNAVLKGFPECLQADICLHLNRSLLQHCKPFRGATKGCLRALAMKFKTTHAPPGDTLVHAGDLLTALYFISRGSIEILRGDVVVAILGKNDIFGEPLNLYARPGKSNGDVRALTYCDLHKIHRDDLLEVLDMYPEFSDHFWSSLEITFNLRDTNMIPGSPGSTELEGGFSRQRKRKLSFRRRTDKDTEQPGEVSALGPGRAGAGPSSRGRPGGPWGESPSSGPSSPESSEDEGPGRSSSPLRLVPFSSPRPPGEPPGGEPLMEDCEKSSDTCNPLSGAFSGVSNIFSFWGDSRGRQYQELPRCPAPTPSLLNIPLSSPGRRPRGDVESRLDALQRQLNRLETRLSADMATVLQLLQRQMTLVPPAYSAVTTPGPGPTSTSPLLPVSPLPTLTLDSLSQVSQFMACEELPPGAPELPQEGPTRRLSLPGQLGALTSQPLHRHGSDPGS

Structure (SMILES) | hERG current change (%, negative = inhibition) at 10uM
Nn1c(SCC(=O)Nc2ccccc2F)nnc1C1CCCCC1 | 8.64%
COc1cc(/C=C/C(=O)NC(C)CCc2ccccc2)cc(OC)c1OC (stereo not shown) | -1.32%
Cc1ccccc1/C=C/C(=O)N1CCOCC1 | 8.37%
O=C(NCCc1cccs1)c1cccs1 | -7.09%
Cc1ccc(C(=O)NCc2ccccc2F)cc1S(=O)(=O)N1CCCC1 | 4.12%
CCOC(=O)C1CCN(C(=O)COC(=O)Cc2ccc(Cl)cc2)CC1 | -22.7%
CCOc1ccc(OC(=O)C(CCS(C)(=O)=O)N2C(=O)c3ccccc3C2=O)cc1 (stereo not shown) | -11.9%
Cl.NCCCC[C@@H](C(=O)N1CCNCC1)n1cc(CCC(=O)O)nn1 | 37.1%
CN(Cc1c(C(=O)N/N=C/c2ccccc2)nnn1-c1nonc1N)c1ccccc1 | 9.3%
CCc1ccccc1NC(=O)CCNC(=O)Cn1ccc2ccccc2c1=O | 21.2%
COc1ccc(C/C(N)=N/OC(C)=O)cc1OC | 7.62%
O=C(O)CSc1nnc(COc2cccc3ccccc23)o1 | 19.2%
COc1ccc(CCNS(=O)(=O)c2cnc(Cl)c(Br)c2)cc1OC | 4.79%
CC(=O)NCCCC(=O)NN1C(=S)N(Cc2ccccc2)C(=O)C1CC(=O)Nc1cccc(C)c1 (stereo not shown) | 8.8%
O=C1/C(=C/c2ccco2)SC(=S)N1C1CCS(=O)(=O)C1 (stereo not shown) | 6.47%
CCOc1cc(/C=N/NC(=O)c2nn(C)cc2Br)ccc1OCc1ccccc1Cl | -14.7%
COc1cc(OC)c(OC)cc1/C=C1\Oc2cc(OS(C)(=O)=O)ccc2C1=O | 2.35%
CCCCN1C(N)=NC[C@@H]1CC1CCCCC1 | -11.5%
OCC1(CCOc2ccccc2)CCN(CCCn2cccn2)CC1 | -73.1%
O=C(c1ccc2c(c1)OCCO2)C1CCN(C(=O)c2ccc(F)cc2)CC1 | -13%

Structure (SMILES) | hERG current change (%, negative = inhibition) at 10uM
CC1CN(C)C(C)c2c1oc1ccc([N+](=O)[O-])cc21 (stereo not shown) | -37.9%
CCOc1ncccc1C(=O)NCc1ccccc1Cl | 2.81%
Cc1cc(=O)n2nc(N3CCC(C(=O)NCc4cccc(Cl)c4)CC3)sc2n1 | -43.7%
Cc1ccc(-c2nc(S(=O)(=O)c3ccc(C)cc3)c(N3CCOCC3)o2)cc1 | -32.2%
CC(C)CCNC(=O)CN1C(=O)NC(c2ccccc2)(c2ccccc2)C1=O | -3.24%
Cc1c(C#N)c(N)nc2c3c(sc12)NC(=O)CC3c1ccc(F)cc1 (stereo not shown) | 10.8%
COc1cc2c(cc1OC)C(c1cccc(Cl)c1)CC(=O)N2 (stereo not shown) | 0.82%
CCCCCCOc1ccc(/C(N)=N/O)cc1 | 5.59%
N#C/C(=C/c1ccc(Sc2nc3ccccc3[nH]2)o1)c1cccc(F)c1 | -8.39%
CC(=O)N1c2ccccc2C(=O)C1N1CCCCC1 (stereo not shown) | -4.1%
CCCCOc1ccc(C(=O)N2CCNC(=O)C2)cc1 | 17.6%
O=C(O)/C=C/C(=O)Nc1ccc(-n2ccc(C(F)(F)F)n2)cc1 | 7.01%
O=C(CCNc1ccccc1)c1ccc2c(c1)OCO2 | -2.14%
CCOC(=O)C1CCN(C(=O)c2cc3c(=O)n4ccccc4nc3s2)CC1 | -6.6%
CCCCC1=CC2=C(c3ccco3)C(=O)C(C)(OC(=O)c3ccc(OC)cc3)C(=O)C2=CN1Cc1ccc2c(c1)OCO2 (stereo not shown) | -4.39%
COc1ccc(C)cc1NC(=O)CNC(=O)Cn1ccc2ccccc2c1=O | -7.79%
O=C(CSc1nnc(CNc2ccc(F)cc2)n1Cc1ccco1)N1CCCC1 | -35.7%
COc1ccccc1N1CCN(C(=O)C2CCN(S(=O)(=O)c3ccc(C)cc3)CC2)CC1 | -19.9%
CNC(=O)c1c(NC(=O)c2ccco2)sc2c1CCCC2 | -0.377%
Cc1ccc(C)c(C(=O)CN2Cc3ccccc3C2=O)c1 | 7.02%

Structure (SMILES) | hERG current change (%, negative = inhibition) at 10uM
COc1ccc(S(=O)(=O)N2CCCCC2)cc1NC(=O)CCOc1cc(C)ccc1C | 8.59%
Cc1cc(C)cc(NC(=S)NN)c1 | 1.09%
Cc1cc[n+](-c2ccccc2)c2ccccc12.[Cl-] | 76.5%
O=C(NCc1cccnc1)NC1CCCCC1 | 5.25%
O=C(CCCc1nc(-c2ccc(Cl)cc2)no1)NC1CCCC1 | -1.19%
COC(=O)CS(=O)(=O)c1nnc([C@H](Cc2ccccc2)NC(=O)OC(C)(C)C)o1 | 9.11%
CCOc1ccc(S(=O)(=O)N2CCN(C(=O)c3ccncc3)CC2)cc1 | 4.67%
O=C(CCl)NNc1cccc(Cl)n1 | 6.28%
O=C(O)c1ccc(CNC(=O)c2ccc(S(=O)(=O)N3CCCCC3)cc2)cc1 | -1.88%
Cc1cc(C(=O)N2CCN(c3ccc(F)cc3)CC2)on1 | -14.5%
COc1ccc(C2CC(c3ccc(OC)cc3)n3nc(NS(C)(=O)=O)nc3N2)cc1 (stereo not shown) | -10.6%
Cc1ccc(CCNc2ccccc2)c[n+]1[O-] | 2.22%
CNc1c(NS(=O)(=O)c2ccc(Cl)s2)c(=O)oc2ccccc12 | -4.04%
Cc1ccc(Sc2ccncc2S(N)(=O)=O)cc1 | -0.5%
CCc1ccc([C@@H]2CC=C(C(=O)O)[C@H](c3cccc(Cl)c3)N2S(=O)(=O)c2ccc(C)cc2)cc1 | 15.2%
COc1ccc2cc(C(=O)N3CCN(Cc4ccc5c(c4)OCO5)CC3)[nH]c2c1 | -8.42%
COc1ccc(CNC(=O)c2cc3cccc(O)c3oc2=N)cc1 | 12%
CCS(=O)(=O)c1ccc2oc(SCC(=O)NC34CC5CC(CC(C5)C3)C4)nc2c1 | -33.7%
